# Measurements from PubChem BioAssay AID463173 (ICCB-Longwood Screening Facility, Harvard Medical School, 2010).
# The campaign covered roughly 52,000 compounds. About 4,300 (8.3%) were called active. No stated cut-off is given here; in the data, active means survival mostly below about 52% (no sharp cut-off); inactive means mostly above about 56%. Some of the results follow.
# System: DeltatarO mutant
# Experiment: S. aureus survival, RN4220 and DeltatarO strains – OD600, teichoic acid synthesis inhibitors, primary screen (AID 463173)
# Settings: S. aureus RN4220 wild type/DeltatarO growth, OD600, 18 h, hits give low values, screened at 18.75 µg/mL (by protocol)
row,SMILES,survival
1,COC(=O)c1oc2nc(C)cc(C)c2c1N,inactive: 78%
2,CCn1c(=O)c2sccc2n2c(CCCC(=O)N3CCN(c4ccc(F)cc4)CC3)nnc12,inactive: 96%
3,CCN(CC)c1ccc2cc(-c3nc4sc5c(c4c(=O)[nH]3)CCC(C(C)(C)C)C5)c(=O)oc2c1 (stereo unspecified),inactive: 82%
4,O=C(NCc1ccco1)Nc1ccccc1,inactive: 94%
5,CCN1CCN(Cc2c(O)ccc3oc(C)c(C(=O)Nc4cccc(C(F)(F)F)c4)c23)CC1,inactive: 104%
6,COc1cccc(NC(=O)c2c(C)oc3nc(C)nc(N4CCCC4)c23)c1,inactive: 66%
7,COc1ccc(CC(=O)Nc2nc3c(s2)CCCC3)cc1,inactive: 95%
8,Cc1ccc2c(c1)N(C(=O)CCC(=O)NCc1cccc(F)c1)CC(C)O2 (stereo unspecified),inactive: 78%
9,Cc1cccc(C)c1NC(=O)c1cc(S(=O)(=O)N2CCc3ccccc3C2)ccc1F,inactive: 129%
10,O=c1oc2ccccc2cc1-c1cn2cc(Cc3cc(Cl)ccc3Cl)sc2n1,active: 52%
11,COc1ccc(NC(=O)C2CCCN(S(=O)(=O)c3ccc(F)cc3)C2)cc1 (stereo unspecified),inactive: 76%
12,CC(=O)N1CCN(C(=O)C2(NC(=O)Nc3ccc(C)cc3)CCCCC2)CC1,inactive: 102%
13,CCOc1ccc(N2C(=O)CC3(CC(C(=O)OCc4ccccc4)=NN3)C2=O)cc1 (stereo unspecified),inactive: 76%
14,CCN(CC)S(=O)(=O)c1ccc2c(c1)N(CC(=O)Nc1cccc(C#N)c1)C(=O)CO2,inactive: 75%
15,CCc1nnc(NC(=O)CSc2nc3c([nH]c4ccccc43)c(=O)n2-c2ccc(Cl)cc2)s1,inactive: 93%
16,FC(F)(F)c1cc(-c2ccccc2)nc2cc(-c3ccccc3)nn12,inactive: 59%
17,Cc1ccc(O)c(NC(=O)C2=CC(c3ccco3)=NS(=O)(=O)N2C)c1,inactive: 87%
18,CCOC(=O)c1c(C)[n+]([O-])c2ccc3c(non3O)c12,inactive: 79%
19,COC(=O)c1ccc(NC(=O)C(=O)NCCc2csc(-c3ccc(F)cc3)n2)cc1,inactive: 117%

row,SMILES,survival
1,O=C(CSc1ncccc1C(=O)Oc1ccccc1Cl)Nc1ccc(C(F)(F)F)cc1Cl,inactive: 77%
2,COc1ccc(N2CCN(Cc3nc4c(c(=O)[nH]c(=O)n4C)n3Cc3ccccc3C)CC2)cc1,inactive: 119%
3,Cc1csc2nc(COC(=O)CNC(=O)c3ccccc3)cc(=O)n12,inactive: 78%
4,COc1ccc(NC(=O)CNC(=O)Cn2c(C)cc3ccccc3c2=O)c(OC)c1,inactive: 62%
5,O=C(c1ccccc1)N1CCN(CCc2ccccn2)CC1,inactive: 49%
6,CCOc1ccc(-n2cc(-c3ccccc3)c3c(Nc4cccc(F)c4)ncnc32)cc1,inactive: 85%
7,COC(=O)C1=C(C)Nc2ccccc2S1,inactive: 99%
8,COc1cccc(C(=O)Nc2c(C(=O)Nc3ccc(F)cc3)oc3ccccc23)c1OC,inactive: 60%
9,Cc1ccc(NC(=O)c2cnc(N3CCCC3)nc2C)cc1F,inactive: 89%
10,CCOc1ccc(C(=O)Nc2nnc(SCc3cc(=O)n4ccccc4n3)s2)cc1,inactive: 84%
11,Cc1cc(F)ccc1NC(=O)Cn1cc(S(=O)(=O)NC(C)C)c(S(=O)(=O)NC(C)C)c1,inactive: 90%
12,CCCCSc1nc2sc3c(c2c(=O)n1-c1ccccc1C)CC(C)(C)OC3,inactive: 48%
13,COc1ccccc1C(=O)Nc1nc2n(n1)C(c1ccc(F)cc1)C=C(c1ccc(Cl)cc1)N2 (stereo unspecified),inactive: 49%
14,CCOC(=O)c1cc(S(=O)(=O)NCc2ccc(Cl)cc2)[nH]n1,inactive: 87%
15,CCc1ccc(CNC(=O)C2CCCN(c3nnc(C)c4c(C)n(-c5ccccc5)nc34)C2)cc1 (stereo unspecified),inactive: 92%
16,COc1ccccc1C(=O)N/C(=C\c1cn(S(=O)(=O)N(C)C)c2ccccc12)C(=O)NCCCn1ccnc1,inactive: 102%
17,Cc1ccccc1CSc1ncc(Cl)c(C(=O)Nc2nc3ccc(F)cc3s2)n1,inactive: 100%
18,COc1ccccc1C(=O)Nc1ccc2nc(SCC(=O)N3CCCc4ccccc43)sc2c1,inactive: 86%
19,COc1ccc(OC)c(NC(=O)C2CCCN(S(=O)(=O)c3ccc4c(c3)CCCC(=O)N4)C2)c1 (stereo unspecified),inactive: 97%

row,SMILES,survival
1,Cc1cc2n(n1)CCC(=O)N2Cc1ccc(C(=O)Nc2cc(Cl)ccc2C)cc1,inactive: 85%
2,COc1ccccc1NC(=O)C1=C(C)Nc2nc(SC)nn2C1c1ccccc1Cl (stereo unspecified),inactive: 87%
3,CCOC(=O)c1c(NC(=O)c2ccc(OCC)c(Br)c2)sc2c1CCCC2,inactive: 74%
4,CC(=O)Nc1cc(C(=O)NCc2ccc(F)cc2)ccc1Sc1ccc(F)cc1,inactive: 94%
5,Cc1cc2oc(=O)c(CC(=O)NCCc3ccccc3F)c(C)c2c2occ(C(C)(C)C)c12,inactive: 86%
6,CCCCN(C(=O)C1CCC(CNS(=O)(=O)c2cccc3nsnc23)CC1)c1ccccc1 (stereo unspecified),inactive: 80%
7,CC(=O)Nc1ccc(NC(=O)CN(C)S(=O)(=O)c2ccc3c(c2)CCCC(=O)N3)cc1,inactive: 84%
8,COc1ccc(CC(=O)NCC(c2cccs2)S(=O)(=O)c2ccc(F)c(C)c2)cc1 (stereo unspecified),inactive: 105%
9,Cc1ccc(S(=O)(=O)Nc2nnc(CC(C)(C)C)s2)cc1,inactive: 87%
10,Cc1ccc(C)c(S(=O)(=O)c2nnn3c2nc(N2CCN(C)CC2)c2sccc23)c1,inactive: 103%
11,COc1ccc(-c2[nH]nc3nc(-c4cc(Br)ccc4OC)cc(C(=O)O)c23)cc1,inactive: 88%
12,Cc1c(C(=O)OC2CCCCC2)[nH]c2c1C(=O)CC(c1ccc(F)cc1)C2 (stereo unspecified),inactive: 76%
13,CC(C)CC(=O)NCC(c1ccc2c(c1)OCO2)N1CCN(c2ccccc2)CC1 (stereo unspecified),inactive: 85%
14,O=C(CN1CCCN(Cc2cccc(Cl)c2)S1(=O)=O)Nc1ccc2c(c1)OCCO2,inactive: 78%
15,CC1=NN(c2cccc3ccccc23)C(=O)C1,inactive: 102%
16,CCC(=O)Nc1ccc(Cl)c(-c2nc3ccccc3[nH]2)c1,active: 49%
17,COc1ccccc1CN1CCC(CNC(=O)c2cnn(-c3ccccc3Cl)c2C2CCN(C(=O)OC(C)(C)C)CC2)CC1,inactive: 67%
18,COc1ccccc1CNC(=O)CCc1c(C)nc2cc(-c3ccc(Cl)cc3)nn2c1C,inactive: 129%
